Measured values published in the antibiotic and cytotoxicity screens of Wong et al. (2023).
The other results are listed elsewhere or left out.

Columns and labels:
[1] = test system: HSkMC (human skeletal muscle cells); experiment: cytotoxicity call (relative viability < 0.9); details: 10 µM
[2] = test system: HepG2; experiment: cytotoxicity call (relative viability < 0.9); details: 10 µM
[3] = test system: S. aureus RN4220; experiment: growth inhibition call (relative growth <= 0.2); details: 50 µM

Structure (SMILES)	cytotoxicity call [1]	cytotoxicity call [2]	growth inhibition call [3]
C[C@H]1CN([C@@H](C)CO)C(=O)c2cc(NC(=O)CCN3CCOCC3)ccc2O[C@@H]1CN(C)S(=O)(=O)c1ccccc1	inactive	inactive	inactive
C[C@@H]1CCCCO[C@H](CN(C)C(=O)C2CCCCC2)[C@@H](C)CN([C@@H](C)CO)C(=O)c2cc(NC(=O)Nc3ccc(F)cc3)ccc2O1	inactive	active	inactive
C[C@@H]1CN([C@@H](C)CO)C(=O)c2cccc(NS(=O)(=O)c3ccc(F)cc3)c2O[C@H]1CN(C)C(=O)Nc1cccc2ccccc12	active	inactive	inactive
Cn1cc(C(=O)NCc2cn3c(n2)CNCC3)cn1	inactive	inactive	inactive
C[C@H]1CN([C@@H](C)CO)S(=O)(=O)c2ccc(C#Cc3ccncc3)cc2O[C@H]1CN(C)S(=O)(=O)c1ccccc1	inactive	active	inactive
Cc1noc(C)c1NC(=O)Nc1ccc2c(c1)C(=O)N([C@@H](C)CO)C[C@@H](C)[C@@H](CN(C)C(=O)C1CCCCC1)OCCCC[C@H](C)O2	inactive	inactive	inactive
COc1ccc(S(=O)(=O)N(C)C[C@@H]2Oc3ccc(NC(=O)C4CC4)cc3C(=O)N([C@H](C)CO)C[C@@H]2C)cc1	inactive	inactive	inactive
Cc1cc(C)c(/N=c2\scc(C)n2Cc2ccccc2)c(C)c1	inactive	inactive	inactive
Cc1nnc(SCC2=C(C(=O)O)N3C(=O)[C@@H](N)[C@H]3SC2)s1	inactive	inactive	inactive
CC(C)NC(=O)Nc1cccc2c1O[C@@H](CN(C)S(=O)(=O)c1ccc(F)cc1)[C@@H](C)CN([C@H](C)CO)C2=O	inactive	inactive	inactive
Cc1nc2cc(C)c(C)cc2s1	inactive	inactive	inactive
C[C@@H]1CCCCO[C@@H](CN(C)Cc2ccc(C(F)(F)F)cc2)[C@H](C)CN([C@H](C)CO)C(=O)c2cc(NC(=O)c3ccncc3)ccc2O1	inactive	inactive	inactive
C[C@@H]1CN([C@@H](C)CO)C(=O)c2cc(C#CC3CC3)cnc2O[C@H]1CN(C)S(=O)(=O)c1cccc(F)c1	inactive	inactive	inactive
COc1ccc(-c2cccc(-c3nc(C(=O)NCC(F)(F)F)cc4c3[C@@H](CCO)N([S@](=O)C(C)(C)C)C4)c2)cc1	inactive	inactive	inactive
CN1C(=O)c2cc(NC(=O)Cc3cccs3)ccc2OC[C@H]2O[C@@H](CC(=O)NCCc3ccncc3)CC[C@H]21	inactive	inactive	inactive
C[C@@H]1CN([C@H](C)CO)C(=O)c2cccc(NC(=O)NC3CCCCC3)c2O[C@@H]1CN(C)Cc1ccc(C(=O)Nc2ccccc2N)cc1	inactive	inactive	inactive
C[C@@H]1CCCCO[C@@H](CN(C)C(=O)Nc2cccc3ccccc23)[C@H](C)CN([C@@H](C)CO)C(=O)c2cc(NC(=O)Nc3ccc4c(c3)OCO4)ccc2O1	inactive	inactive	inactive
C[C@@H]1CN([C@@H](C)CO)C(=O)c2cc(NC(=O)C3CCCCC3)ccc2O[C@@H](C)CCCCO[C@H]1CN(C)Cc1ccc(C(F)(F)F)cc1	inactive	active	inactive
CC1=C(C(=O)NCCCN2CCN(c3ccc(F)cc3)CC2)C2(CCN(Cc3ccccc3)CC2)OC1=O	inactive	inactive	inactive
C[C@H](CO)N1C[C@H](C)[C@H](CN(C)C(=O)NC2CCCCC2)Oc2ccc(NC(=O)Nc3cccc4ccccc34)cc2CC1=O	inactive	inactive	inactive
C[C@@H]1CCCCO[C@@H](CN(C)S(=O)(=O)c2cccs2)[C@H](C)CN([C@H](C)CO)C(=O)c2cc(NC(=O)C3CCCCC3)ccc2O1	inactive	inactive	inactive
C[C@@H]1CN([C@@H](C)CO)C(=O)CCCn2cc(nn2)CO[C@H]1CN(C)C(=O)Nc1cccc2ccccc12	inactive	inactive	inactive
C[C@@H]1CN([C@H](C)CO)C(=O)c2cc(NC(=O)Nc3cccc4ccccc34)ccc2O[C@H]1CN(C)Cc1ccc(-c2ccccc2)cc1	inactive	active	inactive
CCNC(=O)N1CCC(O)CC1	inactive	inactive	inactive
COc1ccc2cccc(CCNC(C)=O)c2c1	inactive	inactive	inactive
COc1ccc(NC(=O)N(C)C[C@@H]2Oc3c(NC(=O)c4cnccn4)cccc3C(=O)N([C@H](C)CO)C[C@@H]2C)cc1	inactive	inactive	inactive
